In PubChem BioAssay AID2100 (National Center for Advancing Translational Sciences (NCATS), 2009):
Out of some 300,000 compounds screened, about 1,200 (0.4%) were called active. Inconclusive results, whose numbers are uncertain, are shown with a selection of clear calls. Calls follow the shape of the dose curve; as a rule, active = well fitted inhibition curve with a large enough effect; inconclusive = small, poorly fitted or top-dose-only effect, or another doubt; inactive = no such curve, though single readings can be large or run the other way. Potencies of inconclusive entries are doubtful fits and often do not repeat.

target: Lysosomal alpha-glucosidase (Homo sapiens) (UniProt P10253); experiment: qHTS Assay for Inhibitors and Activators of Human alpha-Glucosidase Cleavage of Glycogen; settings: recombinant GAA, glycogen substrate, Amplex Red glucose oxidase fluorescence; series mostly up to 76.4 µM
Outline: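 Recombinant enzyme (4 nM final) with compounds titrated up to 77 uM and bovine liver glycogen (30 ug) in citrate pH 5.0, 0.01% Tween-20, 37 C 40 min. Released glucose detected by Amplex Red/glucose oxidase (Ex 573/Em 610); AC50 from Hill fits.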
Potency is read from the fitted curve at half-maximal effect.

Structure (SMILES) | Potency
ON1C(c2ccccc2C(F)(F)F)N(O)[C@H]2CCCC[C@H]21 (some centres not stated) | inconclusive: 20 µM [inhibitor, partial curve]
CCOC(=O)C(C(C)=O)c1c(Br)c(O)c(O)c2c(C(=O)c3ccc(C)cc3)coc12 (configuration not stated) | active: 31.6 µM
Cc1ccc(CN2CCN(/N=C/c3ccc(C(=O)O)cc3)CC2)cc1 | inconclusive: 25.1 µM [inhibitor, partial curve]
CCC(=O)Nc1ccc(-c2csc(NNC(C)=O)n2)cc1 | inconclusive: 7.08 µM [inhibitor, full curve]
Cc1ccc(-c2nc3ccc(Cl)cn3c2Nc2ccc3c(c2)OCCO3)s1 | inconclusive: 3.55 µM [inhibitor, full curve, poor fit]
CCOC(=O)C(=O)NNc1ccc(Cl)cc1 | inconclusive: 11.2 µM [inhibitor, partial curve]
CCOC(=O)Nc1c(O)ccc2oc(C)c(-c3ccccc3)c12 | inconclusive: 28 µM [inhibitor, partial curve]
Fc1ccccc1NC(=S)NNc1ncc(C(F)(F)F)cc1Cl | active: 28.2 µM
Cc1c(NC2=C(Cl)C(=O)N(c3ccccc3)C2=O)c(=O)n(-c2ccccc2)n1C | active: 10 µM
CC(C)Cn1c(-c2ccc(Br)o2)n[nH]c1=S | inconclusive: 31.6 µM [inhibitor, single point]
CCOc1ccc(N2C(=O)CC(/C=C3/N(C)c4ccccc4C3(C)C)C2=O)cc1 (configuration not stated) | inconclusive: 28 µM [inhibitor, partial curve]
O=C(CSc1ncc(C(F)(F)F)cc1Cl)N1CCN(S(=O)(=O)c2ccccc2)CC1 | inconclusive: 35.5 µM [inhibitor, partial curve]
O=[N+]([O-])c1ccc(N2CCN(c3ccc(O)cc3)CC2)c(Cl)c1 | active: 10 µM
CCOC(=O)c1ccc(NC(=O)CCn2cnnn2)cc1 | inconclusive: 6.31 µM [inhibitor, partial curve]
CN(C)c1ccc(/C=N/Nc2ccc(-n3ccnc3)nn2)cc1 | inconclusive: 28 µM [inhibitor, single point]
c1cn2c(Nc3ccc4c(c3)OCCO4)c(-c3ccc(N4CCOCC4)cc3)nc2cn1 | inconclusive: 7.08 µM [inhibitor, partial curve]
Cc1c(N=Cc2cc3c(cc2Cl)OCO3)c(=O)n(-c2ccccc2)n1C | inconclusive: 2.8 µM [inhibitor, partial curve, poor fit]
Cc1sc2c(c1C)CN(C1CC(C)(C)NC(C)(C)C1)CN2C(=O)c1ccco1 | inconclusive: 7.03 µM [inhibitor, partial curve]
CCc1ccccc1NC(=S)NN | inconclusive: 31.6 µM [inhibitor, single point]
Cc1cc(SCC2=NNC(=O)C2)c(Cl)cc1Cl | inconclusive: 24.9 µM [inhibitor, partial curve]
CCN1C(=O)c2cccc3c(S(=O)(=O)Nc4ccncc4)ccc1c23 | inactive
Cc1ccc(CNC(=O)CCCN2C(=O)c3cccnc3Oc3ccc(Cl)cc32)cc1 | inactive
CNC(=S)NNC(=O)c1sccc1OCc1ccccc1 | inconclusive: 15.7 µM [inhibitor, partial curve]

Structure (SMILES) | Potency
Cc1cccc(NC(=O)C(Cc2ccccc2)n2cccc2)c1C (configuration not stated) | inactive
COC(=O)C1(Cc2ccc(O)cc2)OC(=O)C(O)=C1c1ccc(O)cc1 (configuration not stated) | inconclusive: 10 µM [inhibitor, full curve]
Cn1cc(S(=O)(=O)Nc2ccc(Cl)cc2Cl)c(=O)n(C)c1=O | inconclusive: 8.91 µM [inhibitor, single point]
COc1cc(C(=S)N(C)C)ccc1O | inconclusive: 44.7 µM [inhibitor, single point]
C/C(CC(=O)Nc1cc(C)ccn1)=N\NC(=O)c1cccc(C)c1 | inconclusive: 39.8 µM [inhibitor, partial curve]
CNC(=S)NNC(=O)c1ccc(=O)n(Cc2cccc(C(F)(F)F)c2)c1 | inconclusive: 6.31 µM [inhibitor, partial curve]
COc1cc(C(c2oc(CO)cc(=O)c2O)c2oc(CO)cc(=O)c2O)cc(OC)c1OC | inconclusive: 10 µM [inhibitor, full curve]
COc1cc(C2SCC(=O)N2CCc2ccc(OC)c(OC)c2)ccc1O (configuration not stated) | inconclusive: 35.5 µM [inhibitor, partial curve]
COc1ccc2c(c1)-c1nc(/N=C/c3ccc(O)cc3)sc1CC2 | inconclusive: 28.2 µM [inhibitor, partial curve]
CCCOc1ccc(-c2nc(C#N)c(NCCCn3ccnc3)o2)cc1 | active: 31.4 µM
Cc1cc(/C=C2/C(=O)NN(c3ccccc3)C2=O)c(C)n1-c1ccc(O)cc1 | inactive
CCn1c(N)c(C(=O)NCc2ccc3c(c2)OCO3)sc1=S | inactive
COC(=O)CNC(=O)CN1C(=O)N(c2ccc(Cl)cc2)C(N(O)C(=O)Nc2ccc(Cl)cc2)C1(C)C (configuration not stated) | inconclusive: 14.1 µM [inhibitor, partial curve]
COc1ccc(-n2c(O)c(/C=N/NS(=O)(=O)c3ccc(C)cc3)c3ccccc3c2=O)cc1OC | inconclusive: 17.6 µM [inhibitor, partial curve]
O=C(NNc1nc2c(F)cccc2s1)c1ccccc1 | inconclusive: 28 µM [inhibitor, partial curve]
COc1ccc(NC2CC(=O)N(C)C2=O)cc1 (configuration not stated) | inconclusive: 24.9 µM [inhibitor, partial curve]
O=C(c1cccc(S(=O)(=O)N2CCc3ccccc3C2)c1)N1CCN(c2ccc(O)cc2)CC1 | inconclusive: 44.7 µM [inhibitor, single point]
O=C1CCN(Cc2ccccc2)N1 | inconclusive: 11.2 µM [inhibitor, single point]
CCN1CCN(c2cc(C)c3cc(NC(=S)N(CC)CC)ccc3n2)CC1 | inconclusive: 28.2 µM [inhibitor, single point]
COc1ccccc1NCC(=O)c1ccc(C)c(C)c1 | inconclusive: 28.2 µM [activator, partial curve]
COc1cc(C(=O)NNC(=S)NC(=O)c2ccc(F)cc2)cc(OC)c1OC | inconclusive: 28.2 µM [inhibitor, single point]
O=C(NNc1ccccc1F)C1CCC1 | inconclusive: 28.2 µM [inhibitor, single point]
CN(C)c1ccc(-c2nc3cnccn3c2Nc2ccc3c(c2)OCCO3)cc1 | inconclusive: 8.91 µM [inhibitor, partial curve]

Structure (SMILES) | Potency
COc1cc(Nc2nc3c(S(=O)(=O)c4cccc(Cl)c4)nnn3c3ccsc23)cc(OC)c1 | inactive
CCOC(=O)c1ccccc1NS(=O)(=O)c1ccc(OCC)cc1 | inconclusive: 1.98 µM [inhibitor, partial curve]
COC(=O)[C@@]1(Cc2ccc(OC)cc2)[C@H]2c3cc(C(=O)N4CCCC4)n(CCc4c[nH]c5ccc(O)cc45)c3C[C@H]2CN1C(=O)c1ccccc1 | inconclusive: 12.6 µM [inhibitor, partial curve]
Cn1c(N/N=C/c2cccs2)cc(=O)n(C)c1=O | inconclusive: 24.9 µM [inhibitor, single point]
COc1ccccc1CNc1ncnc2c1nc1n2CCCC1 | inconclusive: 12.6 µM [inhibitor, partial curve, poor fit]
Oc1cc2c(cc1CN1CCN(c3ncccn3)CC1)OCO2 | inconclusive: 7.08 µM [inhibitor, full curve]
O=c1cc(-c2ccc(Cl)cc2)[nH][nH]1 | inconclusive: 35.5 µM [inhibitor, single point]
S=C(NCc1ccccc1)NNc1nc2ccccc2[nH]1 | inconclusive: 7.03 µM [inhibitor, single point]
CCN(CC)c1ccc(NS(=O)(=O)c2ccc(OC)cc2)cc1 | inconclusive: 8.91 µM [inhibitor, partial curve]
CCCn1c(N)c(C(=O)CSc2nc3ccccc3c(=O)n2-c2ccc(OC)cc2)c(=O)[nH]c1=O | inconclusive: 35.5 µM [inhibitor, single point]
O=C(CNCCC1=CCCCC1)Nc1ccccc1N1CCCCCC1 | inconclusive: 12.6 µM [inhibitor, partial curve]
COc1ccccc1N1CCN(Cc2nc(-c3cc(OC)c(OC)c(OC)c3)no2)CC1 | inconclusive: 11.2 µM [inhibitor, single point]
COc1c(O)cc2c(c1O)[C@@H]1O[C@H](CO)[C@@H](O)[C@H](O)[C@H]1OC2=O | inactive
Cc1nn(C)c(C(=O)NNC(=S)NCc2ccco2)c1Cl | inconclusive: 50.1 µM [inhibitor, single point]
CC1CC(C)(C)N2C(=O)C3(Nc4ccccc4S3)c3cccc1c32 (configuration not stated) | inconclusive: 24.9 µM [inhibitor, partial curve]
CC(=O)/C(=N/Nc1cccc(Cl)c1)N1CCOCC1 | active: 14 µM
NNc1ccc(Cc2ccc(Cl)cc2Cl)nn1 | inconclusive: 39.8 µM [inhibitor, single point]
COc1cc(/C=N/NC(=S)NCCN2CCOCC2)ccc1O | active: 25.1 µM
CCc1cccc(C)c1Nc1c(-c2ccc(N(C)C)cc2)nc2cnccn12 | active: 10 µM
COc1cc(-c2nc3ccccc3s2)ccc1O | inconclusive: 28 µM [inhibitor, partial curve]
COc1ccccc1CCN=C(N)NS(=O)(=O)c1cccs1 | inconclusive: 15.8 µM [activator, partial curve, poor fit]
